# Test results taken from PubChem BioAssay AID686979 (National Center for Advancing Translational Sciences (NCATS), 2013).
# “And” between values parts separate entries of the source, which are not always exact repeats. Equal values may be shown once. The campaign covered roughly 420,000 compounds. About 50,000 (12%) were called active. The inconclusive results got no clear call from the source; some entries with a clear call stand among them for comparison. Calls come from the whole dose curve; as a rule, active = well fitted inhibition curve with a large enough effect; inconclusive = small, poorly fitted or top-dose-only effect; inactive = flat fitted curve, though single readings scatter. Where the call is inconclusive, the potency comes from a doubtful curve fit.
# Assay: qHTS for Inhibitors of human tyrosyl-DNA phosphodiesterase 1 (TDP1): qHTS in cells in presence of CPT; note: nearly all actives have a fitted effect of over 55% in size
# Conditions: chicken DT40 Tdp1-/-;hTDP1 cells + 20 nM CPT, ATP luminescence, 48 h; activity change, negative = growth inhibition: at 46.2 µM (top of the series) unless noted
# Method in brief: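 Chicken DT40 Tdp1-/- cells complemented with human TDP1, 400 cells/well, exposed to compounds plus 20 nM camptothecin for at least 48 h at 37 C; viability read as ATP content by CellTiter-Glo luminescence.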
# % is set by controls: 0 for no effect and ±100 for the full control effect; potency is the fitted concentration of half-maximal effect; tags give direction and shape of the fitted curve.
Compound,Potency,"activity change, negative = growth inhibition"
CCc1nc2ccc(C(=O)NCCOc3ccc(OC)cc3)cn2c1N(C=O)Cc1ccc(OC)cc1,active: 23.1 µM,
CCCc1cc(Nc2ccc(C)cc2)n2ncnc2n1,"inconclusive: 18.4 µM [inhibitor, single point]",
CN(Cc1ccco1)S(=O)(=O)c1nnc(NC(=O)c2ccccc2Cl)s1,"inactive and inconclusive: 32.6 µM [inhibitor, single point]",
CN(C)CC(C)(C)CNS(=O)(=O)c1ccc(Cl)s1,,inactive: -0.812%
Cc1nc(N2CCN(C(=O)c3cnccn3)CC2)c2c3c(sc2n1)CC(C(C)(C)C)CC3 (stereo unspecified),,inactive: 0%
Cc1ccc(S(=O)(=O)N2CCCCC2)cc1NC(=O)COc1ccccc1,"inconclusive: 13 µM [inhibitor, single point]",
Cc1ccc2c(c1)C(c1ccccc1)N(C(=O)c1ccc(S(=O)(=O)N3CCOCC3)cc1)CC(=O)N2 (stereo unspecified),"inconclusive: 16.4 µM [inhibitor, single point]",
CC1=C(C(=O)N(C(C)C)C(C)C)CC(CC(=O)NCCc2ccccn2)C(=O)N1Cc1ccc(C(C)(C)C)cc1 (stereo unspecified),active: 16.4 µM,
CCC(=O)N1CCc2cc(S(=O)(=O)NC(C(=O)NCCc3cccc(C)c3)C(C)C)ccc21 (stereo unspecified),,inactive: -8.53%
COc1cc(Cl)c(C)cc1Nc1nc2ccccc2n2cnnc12,,inactive: -8.83%
CCOC(=O)c1ccc(NC(=S)NCCc2ccc(F)cc2)cc1,"inconclusive: 29.1 µM [inhibitor, single point]",
CSc1nc2cc(Oc3cccc(Cl)c3Cl)c(Cl)cc2[nH]1,"inconclusive: 29.9 µM [inhibitor, single point] and inconclusive: 29.1 µM [inhibitor, single point]",
C/C(=N\NC(=O)c1cccc(S(=O)(=O)Nc2ccccc2Cl)c1)c1ccc(-n2ccnc2)cc1,,inconclusive: -30% [inhibitor]
N/N=C(\c1ccccc1)c1cc(Cl)ccc1N,,inconclusive: -35% [inhibitor]
Cc1nc(CSc2n[nH]c(=O)n2-c2cccc(F)c2)cs1,,inactive: 10.4%
NCCNC[C@@H]1COC2(CCCCCCCCCCC2)O1,"inconclusive: 18.4 µM [inhibitor, single point]",
CC1CCCN(CCCNC(=O)c2cc3c(Cl)nc4ccccc4c3s2)C1 (stereo unspecified),active: 10.3 µM,
C/C(Cl)=C/Cn1c(N2CCCC2)nc2c1c(=O)n(C)c(=O)n2C,"inconclusive: 16.4 µM [inhibitor, single point]",
COc1ccc(/C=N\NC(=O)c2ccccc2Br)cc1COc1ccccc1,"inconclusive: 23.1 µM [inhibitor, single point]",
CCc1ccccc1N(C)C(=O)c1sc2nc3n(c(=O)c2c1C)CCCCC3,"inconclusive: 29.1 µM [inhibitor, single point]",
CC(C)CCNC(=O)c1ccc(-n2cnc3cccnc32)cc1,"inconclusive: 18.4 µM [inhibitor, single point]",
O=S(=O)(Nc1ccc(Br)cc1)c1cccc(NC(=S)NCCN2CCOCC2)c1,"inconclusive: 29.1 µM [inhibitor, single point]",
COC(=O)C[N+](C)(C)C/C=C\c1ccccc1,,inactive: 20.4%

Compound,Potency,"activity change, negative = growth inhibition"
CC(CC(=O)N1CCN(c2ccccc2)CC1)S(=O)(=O)c1ccc2c(c1)NC(=O)CO2 (stereo unspecified),active: 20.6 µM,
c1ccc(-c2nn3c(Cn4cnc5ccccc54)nnc3s2)cc1,"inconclusive: 16.4 µM [inhibitor, single point]",
CCCCS(=O)(=O)Nc1ccc(Cc2ccncc2)cc1,,inactive: -27.8%
O=C(Nc1ccc2nc(-c3ccco3)[nH]c2c1)c1cccs1,active: 20.6 µM,
CCOC(=O)C1CCCN(Cc2c(F)cccc2Cl)C1 (stereo unspecified),,inactive: -26%
O=C(NCCc1csc(-c2ccc(F)cc2)n1)c1cccc(F)c1,"inconclusive: 20.6 µM [inhibitor, single point]",
Cc1ccc(C2c3[nH]c4ccccc4c3CCN2C(=O)CSCc2ccc(F)cc2)cc1 (stereo unspecified),"inconclusive: 29.1 µM [inhibitor, single point]",
O=C1NC[C@H](c2ccccc2)N(CCc2cccc(F)c2)C1=O,,inactive: -4.24%
CCOC(=O)Cc1csc(NC(=O)CCCCCN2C(=O)c3ccccc3C2=O)n1,,inactive: -1.02%
CS(=O)(=O)N1CCN(C(=S)NCc2ccc(Cl)cc2)CC1,,inactive: 6.94%
O=C(CCSCCC(=O)NN=Cc1cccc(Cl)c1)NN=Cc1cccc(Cl)c1,"inconclusive: 29.1 µM [inhibitor, single point]",
Cc1ccc(C)c(NC(=O)CN(C)C(=O)c2ccccn2)c1,,inactive: 5.42%
Oc1ccc(-c2nc3ncccn3c2Nc2ccc3c(c2)OCCO3)cc1,"inconclusive: 29.1 µM [inhibitor, single point]",
CCOC(=O)C1CCN(C(=O)c2ccc3c(c2)sc2nc(-c4ccccc4)cn23)CC1,active: 6.51 µM,
Cc1cccc(-c2ocnc2C(=O)Nc2ccccc2C(=O)N2CCCC2)c1,"inconclusive: 29.1 µM [inhibitor, single point]",
Cc1cccc(NC(=O)CN2C(=O)S/C(=C\c3ccc(-c4cccc(C(=O)O)c4C)o3)C2=O)c1,,inactive: -4.48%
COc1ccc(CC(=O)NCc2ccc3c(c2)CCN3C(C)=O)cc1OC,,inactive: 12.1%
COCc1ccc(CN2CCc3c([nH]c4ccccc34)C2CC(C)C)o1 (stereo unspecified),"inconclusive: 25.9 µM [inhibitor, single point]",
Nc1c(C(=O)Nc2ccc(Cl)c(C(F)(F)F)c2)sc2nc(-c3ccncc3)ccc12,"inconclusive: 18.4 µM [inhibitor, single point]",
CCCCCC[n+]1c(-c2ccc(Cl)cc2Cl)csc1Nc1ccccc1,"inconclusive: 29.1 µM [inhibitor, single point]",
c1ccc(COc2ccc(CNn3cnnc3)cc2)cc1,,inactive: -6.9%
Cc1ccc2oc(-c3ccccc3)c(C(=O)O)c(=O)c2c1,"inconclusive: 29.1 µM [inhibitor, single point]",
Cc1ccc(NC(=O)c2sc3ncn(CC(=O)N4CCN(c5ccccn5)CC4)c(=O)c3c2C)cc1F,"inconclusive: 25.9 µM [inhibitor, single point]",
